Laboratory results reported in paper PMC6168491, “Sin3A recruits Tet1 to the PAH1 domain via a highly conserved Sin3-Interaction Domain” (Scientific Reports, 2018).
Where a chain is given by its changes, count along the chain named. Numbers in names are those of the source. Like-named read-outs stand apart in the source and are kept apart here. Results are given in words; binding and its absence hold for the method and conditions named. For some of these results: In cells and extracts the contact can be indirect. Some binding calls cover weakened binding; strength is not graded here. For some of these results: Sequences can lack the tags named with a protein.

Columns and labels:
[1] = molecular target: T1, PAH1-His (Sin3A-PAH1 115–212) (UniProt Q60520); assay: SEC; analytical gel filtration of purified GB1-Tet1(878–911) and His-PAH1 mixed at a 1:1 ratio; complex read from earlier elution; both purified
T1 sequence: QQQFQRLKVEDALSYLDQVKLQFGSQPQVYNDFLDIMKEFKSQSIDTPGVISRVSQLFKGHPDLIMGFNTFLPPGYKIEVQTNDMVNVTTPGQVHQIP

[2] = molecular target: T2, GST-Tet1 878–911 L897A/L900A (UniProt Q3URK3); assay: pull-down; GST fusion bound to glutathione-Sepharose beads; partner in vitro translated with [35S]-methionine; 150 mM NaCl, 20 mM Tris pH 8.0, 1 mM EDTA, 0.5% IGEPAL CA-630, 3 h; SDS-PAGE and phosphorImager; only the target purified
T2 sequence: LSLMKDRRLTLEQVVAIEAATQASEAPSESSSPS

GST-Tet1(878–911) = GST-Tet1(878–911) (UniProt Q3URK3); assay: as above
[3] = molecular target: T3, GST-Tet1 878–911 A893D/A896D (UniProt Q3URK3); assay: as above
T3 sequence: T2 sequence with A16D, A19D, A20L, A23L

GST-Tet1 878–911 I894A = molecular target: T4, GST-Tet1 878–911 I894A (UniProt Q3URK3); assay: as above
T4 sequence: T2 sequence with I17A, A20L, A23L

[4] = molecular target: T1, PAH1-His (Sin3A-PAH1 115–212); assay: SEC; analytical gel filtration of purified GB1-Tet1(878–911) and His-PAH1 mixed at a 1:1 ratio; complex read from earlier elution; both purified; remark: listed apart in the source
[5] = molecular target: Tet1-SID(878–911) for NMR (UniProt Q3URK3); assay: NMR titration; 15N-HSQC of the free Tet1-SID and after addition of PAH1 (Supplementary Fig. S6); both purified

Molecule: GB1-Tet1(878–911) (from UniProt Q3URK3 861-894) (domain or fragment)
- binding [1]: binds

B1: full-length 35S-Met labelled Sin3A (protein, UniProt Q60520 1-1274)
chain: MKRRLDDQESPVYAAQQRRIPGSTEAFSHQHRVLAPAPPVYEAVSETMQSATGIQYSVAPNYQVSAVPQSSGSHGPAIAAVHSSHHHPTAVQPHGGQVVQSHAHPAPPVAPVQGQQQFQRLKVEDALSYLDQVKLQFGSQPQVYNDFLDIMKEFKSQSIDTPGVISRVSQLFKGHPDLIMGFNTFLPPGYKIEVQTNDMVNVTTPGQVHQIPTHGIQPQPQPPPQHPSQPSSQSAPTPAQPAPQPTAAKVSKPSQLQAHTPASQQTPPLPPYASPRSPPVQPHTPVTISLGTAPSLQNNQPVEFNHAINYVNKIKNRFQGQPDIYKAFLEILHTYQKEQRNAKEAGGNYTPALTEQEVYAQVARLFKNQEDLLSEFGQFLPDANSSVLLSKTTAEKVDSVRNDHGGTVKKPQLNNKPQRPSQNGCQIRRHSGTGATPPVKKKPKLMSLKESSMADASKHGVGTESLFFDKVRKALRSAEAYENFLRCLVIFNQEVISRAELVQLVSPFLGKFPELFNWFKNFLGYKESVHLESFPKERATEGIAMEIDYASCKRLGSSYRALPKSYQQPKCTGRTPLCKEVLNDTWVSFPSWSEDSTFVSSKKTQYEEHIYRCEDERFELDVVLETNLATIRVLEAIQKKLSRLSAEEQAKFRLDNTLGGTSEVIHRKALQRIYADKAADIIDGLRKNPSIAVPIVLKRLKMKEEEWREAQRGFNKVWREQNEKYYLKSLDHQGINFKQNDTKVLRSKSLLNEIESIYDERQEQATEENAGVPVGPHLSLAYEDKQILEDAAALIIHHVKRQTGIQKEDKYKIKQIMHHFIPDLLFAQRGDLSDVEEEEEEEMDVDEATGAPKKHNGVGGSPPKSKLLFSNTAAQKLRGMDEVYNLFYVNNNWYIFMRLHQILCLRLLRICSQAERQIEEENREREWEREVLGIKRDKSDSPAIQLRLKEPMDVDVEDYYPAFLDMVRSLLDGNIDSSQYEDSLREMFTIHAYIAFTMDKLIQSIVRQLQHIVSDEVCVQVTDLYLAENNNGATGGQLNSQTSRSLLESAYQRKAEQLMSDENCFKLMFIQSQGQVQLTVELLDTEEENSDDPVEAERWSDYVERYMSSDTTSPELREHLAQKPVFLPRNLRRIRKCQRGREQQEKEGKEGNSKKTMENVESLDKLECRFKLNSYKMVYVIKSEDYMYRRTALLRAHQSHERVSKRLHQRFQAWVDKWTKEHVPREMAAETSKWLMGEGLEGLVPCTTTCDTETLHFVSINKYRVKYGTVFKAP
modifications: [35S]-methionine label
- binding [2]: no binding
- binding (GST-Tet1(878–911)): binds
- binding [3]: no binding
- binding (GST-Tet1 878–911 I894A): binds

B2: Tet1-SID(878–911) I894A for NMR (domain or fragment, UniProt Q3URK3 861-894, looked up)
chain: T2 sequence with I17A, A20L, A23L
notes: Tag removal for NMR was conducted as needed
- binding [4]: binds

B3: Tet1-SID(878–911) T898A for NMR (domain or fragment, UniProt Q3URK3 861-894, looked up)
chain: T2 sequence with A20L, T21A, A23L
notes: as for B2
- binding [4]: binds

B4: PAH1(115–212) for NMR (domain or fragment, UniProt Q60520 115-212)
chain: T1 sequence
- binding [5]: binds

B5: Sin3A 1–205 (domain or fragment, UniProt Q60520 1-205)
chain: MKRRLDDQESPVYAAQQRRIPGSTEAFSHQHRVLAPAPPVYEAVSETMQSATGIQYSVAPNYQVSAVPQSSGSHGPAIAAVHSSHHHPTAVQPHGGQVVQSHAHPAPPVAPVQGQQQFQRLKVEDALSYLDQVKLQFGSQPQVYNDFLDIMKEFKSQSIDTPGVISRVSQLFKGHPDLIMGFNTFLPPGYKIEVQTNDMVNVTTP
modifications: [35S]-methionine label
- binding (GST-Tet1(878–911)): binds

B6: Sin3A 1–479 (domain or fragment, UniProt Q60520 1-479)
chain: MKRRLDDQESPVYAAQQRRIPGSTEAFSHQHRVLAPAPPVYEAVSETMQSATGIQYSVAPNYQVSAVPQSSGSHGPAIAAVHSSHHHPTAVQPHGGQVVQSHAHPAPPVAPVQGQQQFQRLKVEDALSYLDQVKLQFGSQPQVYNDFLDIMKEFKSQSIDTPGVISRVSQLFKGHPDLIMGFNTFLPPGYKIEVQTNDMVNVTTPGQVHQIPTHGIQPQPQPPPQHPSQPSSQSAPTPAQPAPQPTAAKVSKPSQLQAHTPASQQTPPLPPYASPRSPPVQPHTPVTISLGTAPSLQNNQPVEFNHAINYVNKIKNRFQGQPDIYKAFLEILHTYQKEQRNAKEAGGNYTPALTEQEVYAQVARLFKNQEDLLSEFGQFLPDANSSVLLSKTTAEKVDSVRNDHGGTVKKPQLNNKPQRPSQNGCQIRRHSGTGATPPVKKKPKLMSLKESSMADASKHGVGTESLFFDKVRKALRSAE
modifications: [35S]-methionine label
- binding (GST-Tet1(878–911)): binds
